# From PubChem BioAssay AID1460 (National Center for Advancing Translational Sciences (NCATS), 2008)
# Hit rate of the full screen: of about 270,000 compounds, about 5,800 (2.1%) were called active. Inconclusive means that the source gave no clear call. Such entries were picked first, then a sample of the others. The call rests on the fitted dose curve; in most records, active means well fitted inhibition curve with a large enough effect; inconclusive means small, poorly fitted or top-dose-only effect; inactive means flat fitted curve, though single readings scatter. A potency beside an inconclusive call is a rough fit, not a confirmed value.
# Molecular target: Microtubule-associated protein tau (Homo sapiens) (UniProt P10636)
# Assay: qHTS for Inhibitors of Tau Fibril Formation, Thioflavin T Binding; further: nearly all actives have a fitted effect of over 55% in size
# Settings: recombinant tau K18 P301L (four-repeat tau fragment), heparin-induced fibrillization, ThT fluorescence; series mostly up to 57.4 µM
# Summary of the method: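 Tau K18 P301L fragment (15 uM unlabeled plus 0.24 uM Alexa 594-labeled) in 100 mM sodium acetate pH 7 with compound, fibrillization induced by 20 uM heparin for 6 hr at 37 C. Thioflavin T (30 uM) added, fluorescence read after 1 hr (ex 450, em 510 nm).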
# Potency means the concentration at half of the fitted maximal effect; tags describe the fitted curve by direction and shape.
# UniProt P10636, sequence (P10636 whole entry, looked up): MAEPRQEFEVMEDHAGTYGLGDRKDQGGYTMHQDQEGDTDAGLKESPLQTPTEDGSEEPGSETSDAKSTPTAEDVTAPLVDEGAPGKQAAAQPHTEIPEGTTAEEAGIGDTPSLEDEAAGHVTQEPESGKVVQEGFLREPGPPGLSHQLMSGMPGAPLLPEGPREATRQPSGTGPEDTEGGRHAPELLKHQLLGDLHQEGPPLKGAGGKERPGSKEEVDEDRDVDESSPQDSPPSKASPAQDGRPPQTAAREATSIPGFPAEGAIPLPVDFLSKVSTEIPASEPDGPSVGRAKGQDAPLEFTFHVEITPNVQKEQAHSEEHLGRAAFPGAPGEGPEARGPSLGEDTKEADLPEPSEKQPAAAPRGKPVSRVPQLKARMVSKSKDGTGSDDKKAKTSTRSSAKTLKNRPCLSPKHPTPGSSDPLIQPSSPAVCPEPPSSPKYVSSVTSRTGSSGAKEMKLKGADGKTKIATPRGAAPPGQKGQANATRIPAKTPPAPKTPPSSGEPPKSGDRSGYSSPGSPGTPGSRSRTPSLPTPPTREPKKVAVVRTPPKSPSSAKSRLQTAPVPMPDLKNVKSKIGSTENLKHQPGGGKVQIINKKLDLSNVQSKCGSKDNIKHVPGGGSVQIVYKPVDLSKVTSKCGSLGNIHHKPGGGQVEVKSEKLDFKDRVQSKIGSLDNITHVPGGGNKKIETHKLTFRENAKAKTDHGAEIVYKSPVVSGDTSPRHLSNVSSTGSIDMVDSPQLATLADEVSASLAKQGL
row,Compound,Potency
1,C/C(=N/OC(=O)C1CC1)c1cc(-c2ccc(Cl)cc2)no1,inactive
2,CCn1c(SCC(=O)N/N=C/c2ccc(C)o2)nnc1-c1ccc(C)cc1,"inconclusive: 31.6 µM [inhibitor, single point]"
3,O=C(c1ccc(O)cc1)c1ccc(C(=O)c2ccc(O)cc2)cc1,inactive
4,Cc1ccc(CN2CCC(CNC(=O)c3cnn(-c4ccccc4Cl)c3C3CCN(C(=O)OC(C)(C)C)CC3)CC2)cc1,inactive
5,CC(=O)NCCN=C(C)c1sc2ccccc2c1O,"inconclusive: 20 µM [inhibitor, partial curve]"
6,C=CCc1cccc(CNc2ccc(Br)cc2)c1O,"inconclusive: 17.8 µM [inhibitor, single point]"
7,COc1ccc(CCNC(=O)c2ccc(-c3ccc([N+](=O)[O-])cc3)o2)cc1OC,"inconclusive: 4.47 µM [inhibitor, full curve]"
8,Cc1ccc(C)c2c1c1ccccc1n2C,"inconclusive: 39.8 µM [inhibitor, single point]"
9,CC(NC(=O)COc1ccc(/C=N/NS(=O)(=O)c2ccccc2)cc1)c1ccccc1 (configuration not stated),inactive
10,NS(=O)(=O)c1ccc(CNC(=O)/C=C/c2ccco2)cc1,"inconclusive: 35.5 µM [inhibitor, partial curve]"
11,CC(C)(C)Cc1nnc(NS(=O)(=O)Cc2ccccc2)s1,inactive
12,COc1cc(C)ccc1OCCOc1cc(C)ccc1Cl,"inconclusive: 14.1 µM [inhibitor, partial curve]"
13,CC(=O)OCC1=C(C(=O)O)N2C(=O)C(NC(=O)Cc3cccs3)C2SC1 (configuration not stated),active: 20 µM
14,Cc1cccc(NC(=S)NCC2CCCO2)c1 (configuration not stated),inactive
15,Clc1ccc(C2=NN(c3ccccc3)C(c3ccco3)C2)cc1 (configuration not stated),"inconclusive: 20 µM [inhibitor, partial curve]"
16,O=C(CS(=O)(=O)c1cccc2nsnc12)Nc1ccccc1Cl,inactive
17,CN(C)c1ccc(N/C=C/C(=O)C(F)(F)F)cc1,active: 10 µM
18,Cc1ccc(NC(=O)CC2SC3=NCCCN3C2=O)c(C)c1 (configuration not stated),"inconclusive: 15.8 µM [inhibitor, partial curve]"
19,CCc1nc2ccc(C(=O)NCCc3ccccc3OC)cc2nc1CC,"inconclusive: 11.2 µM [inhibitor, partial curve]"
20,Oc1ccc(-c2csc(Nc3cccnc3)n2)cc1,active: 15.8 µM
21,CC(O)CNc1nc2sc3c(c2c(=O)n1CCc1ccccc1)CCCCC3 (configuration not stated),"inconclusive: 22.4 µM [inhibitor, partial curve]"
22,CCOC(=O)c1cnc(-n2cc(C)cn2)nc1Nc1ccccc1OC,"inconclusive: 10 µM [inhibitor, partial curve, poor fit]"
